Data reported in the supplement of paper PMC6657886.
MIC of clinical N. gonorrhoeae isolates (2015-2017) by agar dilution on GC agar with 1% IsoVitaleX (ranges not stated); higher = less susceptible. No active / inactive call per row; the paper counts benzylpenicillin above 1 and ceftriaxone above 0.125 mg/L as resistant (EUCAST). The method is stated for benzylpenicillin and ceftriaxone and assumed for the other drugs. '<=' is inferred from pile-ups at the end values. Isolates are numbered anew.

Experiments:
Assay in all cases: Agar dilution on enriched GC agar; resistance determinants by microarray.
[1] = compound: CN(C)[C@@H]1C(O)=C(C(N)=O)C(=O)[C@@]2(O)C(O)=C3C(=O)c4c(O)cccc4[C@@](C)(O)[C@H]3C[C@@H]12 [tetracycline]
[2] = compound: CC1(C)S[C@@H]2[C@H](NC(=O)Cc3ccccc3)C(=O)N2[C@H]1C(=O)O [benzylpenicillin]
[3] = compound: CN[C@@H]1[C@H](O)[C@H](NC)[C@H]2O[C@@]3(O)C(=O)C[C@@H](C)O[C@H]3O[C@@H]2[C@H]1O [spectinomycin]
[4] = compound: CC[C@H]1OC(=O)[C@H](C)[C@@H](O[C@H]2C[C@@](C)(OC)[C@@H](O)[C@H](C)O2)[C@H](C)[C@@H](O[C@@H]2O[C@H](C)C[C@H](N(C)C)[C@H]2O)[C@](C)(O)C[C@@H](C)CN(C)[C@H](C)[C@@H](O)[C@]1(C)O [azithromycin]
[5] = compound: CO/N=C(\C(=O)N[C@@H]1C(=O)N2C(C(=O)O)=C(CSc3nc(=O)c(O)nn3C)CS[C@H]12)c1csc(N)n1 [ceftriaxone]

Row | Test System | MIC [1] | MIC [2] | MIC [3] | MIC [4] | MIC [5]
1 | Neisseria gonorrhoeae isolate 30 (blaTEM plasmid: no, gyrA: wild type, mtrR promoter: wild type, parC: Ser87, Gly 91, penA: wild type, ponA: wild type, porB: wild type, rpsJ: wild type, tetM plasmid: no) | 0.5 µg/mL | ≤ 0.015 µg/mL | 16 µg/mL | 0.12 µg/mL | ≤ 0.002 µg/mL
2 | Neisseria gonorrhoeae isolate 459 (blaTEM plasmid: no, gyrA: wild type, mtrR promoter: wild type, parC: wild type, penA: ins345Asp, ponA: wild type, porB: wild type, rpsJ: wild type, tetM plasmid: no) | 0.12 µg/mL | 0.12 µg/mL | 16 µg/mL | 0.12 µg/mL | ≤ 0.002 µg/mL
3 | Neisseria gonorrhoeae isolate 417 (blaTEM plasmid: no, gyrA: Phe91, Asn95, mtrR promoter: wild type, parC: Arg87, Glu91, penA: ins345Asp, ponA: Pro421, porB: wild type, rpsJ: Met57, tetM plasmid: no) | 0.5 µg/mL | 0.12 µg/mL | 16 µg/mL | 0.25 µg/mL | 0.004 µg/mL
4 | Neisseria gonorrhoeae isolate 333 (blaTEM plasmid: no, gyrA: Phe91, Asn95, mtrR promoter: wild type, parC: Arg87, Glu91, penA: ins345Asp, ponA: Pro421, porB: Asp120, Gly121, rpsJ: Met57, tetM plasmid: no) | 0.06 µg/mL | 0.06 µg/mL | 16 µg/mL | 0.25 µg/mL | ≤ 0.002 µg/mL
5 | Neisseria gonorrhoeae isolate 297 (blaTEM plasmid: no, gyrA: Thr91, Gly95, mtrR promoter: wild type, parC: wild type, penA: ins345Asp, ponA: wild type, porB: wild type, rpsJ: wild type, tetM plasmid: no) | 0.5 µg/mL | 0.06 µg/mL | 16 µg/mL | 0.06 µg/mL | ≤ 0.002 µg/mL
6 | Neisseria gonorrhoeae isolate 175 (blaTEM plasmid: no, gyrA: Phe91, Gly95, mtrR promoter: -35delA, parC: Ser87, Gly 91, penA: ins345Asp, ponA: wild type, porB: Asn120, Asp121, rpsJ: Met57, tetM plasmid: no) | 0.25 µg/mL | ≤ 0.015 µg/mL | 16 µg/mL | 0.06 µg/mL | ≤ 0.002 µg/mL
7 | Neisseria gonorrhoeae isolate 227 (blaTEM plasmid: no, gyrA: wild type, mtrR promoter: wild type, parC: wild type, penA: wild type, ponA: wild type, porB: wild type, rpsJ: wild type, tetM plasmid: no) | 0.25 µg/mL | ≤ 0.015 µg/mL | 16 µg/mL | 0.25 µg/mL | ≤ 0.002 µg/mL
8 | Neisseria gonorrhoeae isolate 447 (blaTEM plasmid: no, gyrA: Phe91, Gly95, mtrR promoter: wild type, parC: Arg 87, Glu91, penA: ins345Asp, ponA: Pro421, porB: Asp120, Ala121, rpsJ: Met57, tetM plasmid: no) | 0.5 µg/mL | 0.25 µg/mL | 16 µg/mL | 0.12 µg/mL | ≤ 0.002 µg/mL
9 | Neisseria gonorrhoeae isolate 416 (blaTEM plasmid: no, gyrA: Thr91, Gly95, mtrR promoter: wild type, parC: wild type, penA: ins345Asp, ponA: wild type, porB: wild type, rpsJ: wild type, tetM plasmid: no) | 0.06 µg/mL | 0.5 µg/mL | 32 µg/mL | 0.03 µg/mL | 0.015 µg/mL
10 | Neisseria gonorrhoeae isolate 433 (blaTEM plasmid: no, gyrA: Phe91, Asn95, mtrR promoter: wild type, parC: wild type, penA: ins345Asp, ponA: Pro421, porB: Asp120, Gly121, rpsJ: Met57, tetM plasmid: no) | 0.5 µg/mL | 0.12 µg/mL | 8 µg/mL | 0.12 µg/mL | 0.008 µg/mL
11 | Neisseria gonorrhoeae isolate 300 (blaTEM plasmid: no, gyrA: wild type, mtrR promoter: wild type, parC: wild type, penA: ins345Asp, ponA: wild type, porB: wild type, rpsJ: wild type, tetM plasmid: no) | 0.5 µg/mL | 0.12 µg/mL | 16 µg/mL | 0.015 µg/mL | 0.004 µg/mL
12 | Neisseria gonorrhoeae isolate 155 (blaTEM plasmid: no, gyrA: Phe91, Gly95, mtrR promoter: wild type, parC: Arg87, Glu91, penA: ins345Asp, ponA: Pro421, porB: wild type, rpsJ: Met57, tetM plasmid: no) | 0.5 µg/mL | 0.25 µg/mL | 16 µg/mL | 0.06 µg/mL | ≤ 0.002 µg/mL
13 | Neisseria gonorrhoeae isolate 354 (blaTEM plasmid: no, gyrA: wild type, mtrR promoter: wild type, parC: wild type, penA: wild type, ponA: wild type, porB: wild type, rpsJ: wild type, tetM plasmid: no) | 0.5 µg/mL | ≤ 0.015 µg/mL | 32 µg/mL | 0.015 µg/mL | ≤ 0.002 µg/mL
14 | Neisseria gonorrhoeae isolate 147 (blaTEM plasmid: no, gyrA: wild type, mtrR promoter: -35delA, parC: wild type, penA: ins345Asp, ponA: wild type, porB: wild type, rpsJ: Met57, tetM plasmid: no) | 0.5 µg/mL | 0.25 µg/mL | 16 µg/mL | 0.12 µg/mL | ≤ 0.002 µg/mL
15 | Neisseria gonorrhoeae isolate 498 (blaTEM plasmid: no, gyrA: wild type, mtrR promoter: wild type, parC: wild type, penA: ins345Asp, ponA: wild type, porB: wild type, rpsJ: wild type, tetM plasmid: no) | 0.12 µg/mL | ≤ 0.015 µg/mL | 32 µg/mL | 0.008 µg/mL | 0.004 µg/mL
16 | Neisseria gonorrhoeae isolate 267 (blaTEM plasmid: no, gyrA: Thr91, Gly95, mtrR promoter: -35delA, parC: wild type, penA: ins345Asp, ponA: wild type, porB: Asn120, Asp121, rpsJ: Met57, tetM plasmid: no) | 2 µg/mL | 0.25 µg/mL | 32 µg/mL | 0.5 µg/mL | 0.008 µg/mL
17 | Neisseria gonorrhoeae isolate 467 (blaTEM plasmid: no, gyrA: Phe91, Asp95, mtrR promoter: -35delA, parC: wild type, penA: ins345Asp, ponA: Pro421, porB: Asp120, Gly121, rpsJ: Met57, tetM plasmid: no) | 1 µg/mL | 0.5 µg/mL | 16 µg/mL | 0.25 µg/mL | 0.004 µg/mL
18 | Neisseria gonorrhoeae isolate 250 (blaTEM plasmid: no, gyrA: wild type, mtrR promoter: wild type, parC: wild type, penA: wild type, ponA: wild type, porB: wild type, rpsJ: wild type, tetM plasmid: no) | 0.03 µg/mL | ≤ 0.015 µg/mL | 4 µg/mL | 0.06 µg/mL | ≤ 0.002 µg/mL
19 | Neisseria gonorrhoeae isolate 508 (blaTEM plasmid: no, gyrA: Phe91, Gly95, mtrR promoter: -35delA, parC: Arg87, Glu91, penA: ins345Asp, ponA: Pro421, porB: Lys 120, Asn 121, rpsJ: Met57, tetM plasmid: no) | 4 µg/mL | 2 µg/mL | 32 µg/mL | 0.06 µg/mL | 0.03 µg/mL
20 | Neisseria gonorrhoeae isolate 242 (blaTEM plasmid: no, gyrA: Phe91, Asn 95, mtrR promoter: -35delA, parC: Arg87, Glu91, penA: ins345Asp, ponA: Pro421, porB: Lys120, Gly121, rpsJ: Met57, tetM plasmid: no) | 2 µg/mL | 1 µg/mL | 32 µg/mL | 1 µg/mL | 0.032 µg/mL
21 | Neisseria gonorrhoeae isolate 270 (blaTEM plasmid: no, gyrA: wild type, mtrR promoter: wild type, parC: wild type, penA: wild type, ponA: wild type, porB: wild type, rpsJ: wild type, tetM plasmid: no) | 0.12 µg/mL | ≤ 0.015 µg/mL | 16 µg/mL | 0.12 µg/mL | ≤ 0.002 µg/mL
22 | Neisseria gonorrhoeae isolate 512 (blaTEM plasmid: no, gyrA: Phe91, Gly95, mtrR promoter: -35delA, parC: Arg87, Glu91, penA: ins345Asp, ponA: Pro421, porB: wild type, rpsJ: Met57, tetM plasmid: no) | 0.25 µg/mL | ≤ 0.015 µg/mL | 8 µg/mL | 0.12 µg/mL | ≤ 0.002 µg/mL
23 | Neisseria gonorrhoeae isolate 73 (blaTEM plasmid: no, gyrA: wild type, mtrR promoter: wild type, parC: wild type, penA: ins345Asp, ponA: wild type, porB: wild type, rpsJ: wild type, tetM plasmid: no) | 0.25 µg/mL | 0.06 µg/mL | 16 µg/mL | 0.06 µg/mL | ≤ 0.002 µg/mL
24 | Neisseria gonorrhoeae isolate 513 (blaTEM plasmid: no, gyrA: Thr91, Gly95, mtrR promoter: wild type, parC: wild type, penA: wild type, ponA: Pro421, porB: wild type, rpsJ: wild type, tetM plasmid: no) | 0.5 µg/mL | 0.06 µg/mL | 16 µg/mL | 0.12 µg/mL | ≤ 0.002 µg/mL
25 | Neisseria gonorrhoeae isolate 452 (blaTEM plasmid: no, gyrA: wild type, mtrR promoter: wild type, parC: wild type, penA: ins345Asp, ponA: wild type, porB: wild type, rpsJ: wild type, tetM plasmid: no) | 0.25 µg/mL | 0.06 µg/mL | 32 µg/mL | 0.008 µg/mL | ≤ 0.002 µg/mL
